From a collection of fitness landscapes (doi:10.1126/science.1257360)
The list shows a part of the results.

B1: PhoQ; a variant is named by its letters at X, in order, P23837 (parent)
chain: MKKLLRLFFPLSLRVRFLLATAAVVLVLSLAYGMVALIGYSVSFDKTTFRLLRGESNLFYTLAKWENNKLHVELPENIDKQSPTMTLIYDENGQLLWAQRDVPWLMKMIQPDWLKSNGFHEIEADVNDTSLLLSGDHSIQQQLQEVREDDDDAEMTHSVAVNVYPATSRMPKLTIVVVDTIPVELKSSYMVWSWFIYVLSANLLLVIPLLWVAAWWSLRPIEALAKEVRELEEHNRELLNPATTRELTSLVRNLNRLLKSERERYDKYRTTLTDLTHSLKTPLXXLQXXLRSLRSEKMSVSDAEPVMLEQISRISQQIGYYLHRASMRGGTLLSRELHPVAPLLDNLTSALNKVYQRKGVNISLDISPEISFVGEQNDFVEVMGNVLDNACKYCLEFVEISARQTDEHLYIVVEDDGPGIPLSKREVIFDRGQRVDTLRPGQGVGLAVAREITEQYEGKIVAGESMLGGARMEVIFGRQHSAPKDE

Variants of: B1
Assay: enrichment ratio after two sorts for PhoP signalling (ratio (wild type AVST 3.29)); higher = more functional
Details: with PhoP (E. coli)

Variant | enrichment ratio
SNCT | 8.8
MKEF | ≤ 0.25
LPNR | ≤ 0.25
NQIY | ≤ 0.25
TYCR | ≤ 0.25
ILGE | ≤ 0.25
DCIY | ≤ 0.25
DYIE | ≤ 0.25
SHVA | ≤ 0.25
NFMS | ≤ 0.25
TSHP | ≤ 0.25
IEPC | ≤ 0.25
SNET | ≤ 0.25
LSAM | ≤ 0.25
VQYH | ≤ 0.25
ALNN | ≤ 0.25
SCNW | ≤ 0.25
HETV | 4.78
YLTR | ≤ 0.25
MIPM | ≤ 0.25
LNTF | ≤ 0.25
ARPI | ≤ 0.25
IVVK | ≤ 0.25
AEFS | 19

Variant | enrichment ratio
DEQV | ≤ 0.25
WHFR | ≤ 0.25
RNEG | ≤ 0.25
ALKH | ≤ 0.25
LTSL | ≤ 0.25
MKLS | ≤ 0.25
SEPL | ≤ 0.25
LEME | ≤ 0.25
NDWN | ≤ 0.25
MKWT | ≤ 0.25
PCGC | ≤ 0.25
DTTV | ≤ 0.25
AMGW | ≤ 0.25
NPVK | ≤ 0.25
RNAK | ≤ 0.25
TSTR | ≤ 0.25
VCIH | ≤ 0.25
PMTC | ≤ 0.25
LMCT | ≤ 0.25
QVLT | ≤ 0.25
TTDE | ≤ 0.25
ICWC | ≤ 0.25
TLEA | ≤ 0.25
RITE | ≤ 0.25

Variant | enrichment ratio
PKRR | ≤ 0.25
EIFV | ≤ 0.25
SGYV | ≤ 0.25
SPLN | ≤ 0.25
SLHK | ≤ 0.25
TNCG | ≤ 0.25
MNTS | ≤ 0.25
GWHN | ≤ 0.25
PLNY | ≤ 0.25
YVMK | ≤ 0.25
HWLM | ≤ 0.25
NDSV | ≤ 0.25
NVEP | ≤ 0.25
GNNE | ≤ 0.25
MQAT | 8.41
DQDK | ≤ 0.25
RMYV | ≤ 0.25
HHYE | ≤ 0.25
LQKK | ≤ 0.25
SMDW | ≤ 0.25
QQAD | ≤ 0.25
HEWT | ≤ 0.25
PWSY | ≤ 0.25
SVPA | ≤ 0.25

Variant | enrichment ratio
QDQH | ≤ 0.25
KSYA | ≤ 0.25
SEGD | 1.88
KGKV | ≤ 0.25
MFPW | ≤ 0.25
GWVR | ≤ 0.25
HSIA | ≤ 0.25
AHEY | ≤ 0.25
KVSG | ≤ 0.25
PPSQ | ≤ 0.25
NWSH | ≤ 0.25
WGPM | ≤ 0.25
GLYY | ≤ 0.25
FVID | ≤ 0.25
GTKG | ≤ 0.25
AKYN | ≤ 0.25
RVMK | ≤ 0.25
QDTG | ≤ 0.25
THDD | ≤ 0.25
CSMF | ≤ 0.25
WGCP | ≤ 0.25
MGYF | 12.2
GILW | ≤ 0.25
VDWR | ≤ 0.25

Variant | enrichment ratio
EEDM | ≤ 0.25
FYEM | ≤ 0.25
GCPQ | ≤ 0.25
YWMG | ≤ 0.25
PSWA | ≤ 0.25
IMCF | ≤ 0.25
HFIN | ≤ 0.25
SCAG | 4.96
KQSH | ≤ 0.25
MYGF | ≤ 0.25
QYRL | ≤ 0.25
VRGD | ≤ 0.25
FAFS | ≤ 0.25
QYTK | ≤ 0.25
RILR | ≤ 0.25
VQDC | ≤ 0.25
MQED | ≤ 0.25
LEGQ | ≤ 0.25
ICQN | ≤ 0.25
MPFS | ≤ 0.25
DDND | ≤ 0.25
QHDI | 19.6
FFEH | ≤ 0.25
EYMH | ≤ 0.25

Variant | enrichment ratio
FSTA | ≤ 0.25
GIVK | 8.57
IKDY | ≤ 0.25
TSYL | 10.5
DAVD | ≤ 0.25
QPVN | ≤ 0.25
ASSK | ≤ 0.25
MKRN | ≤ 0.25
YHLF | ≤ 0.25
PITW | ≤ 0.25
GYGW | ≤ 0.25
RDCR | ≤ 0.25
TPEQ | ≤ 0.25
RHRC | ≤ 0.25
FGAG | ≤ 0.25
RSNW | ≤ 0.25
HVRD | ≤ 0.25
GVFQ | ≤ 0.25
WPFP | ≤ 0.25
NFMP | ≤ 0.25
LALA | 0.957
GHHD | ≤ 0.25
RRVE | ≤ 0.25
WHLL | ≤ 0.25

Variant | enrichment ratio
HTGT | ≤ 0.25
YIVS | ≤ 0.25
GHNG | ≤ 0.25
TQSM | 23.3
QYTF | ≤ 0.25
KIFW | ≤ 0.25
AQIS | 13
HEAM | ≤ 0.25
PVSQ | ≤ 0.25
YNTT | ≤ 0.25
FEGK | ≤ 0.25
EVPG | ≤ 0.25
IGLI | 10.5
NAEK | ≤ 0.25
HWLY | ≤ 0.25
PAWA | ≤ 0.25
SCAN | 8.05
WCDL | ≤ 0.25
YQNV | ≤ 0.25
GIWV | ≤ 0.25
MNSC | ≤ 0.25
GMWE | ≤ 0.25
MAAH | 0.686
EYVC | ≤ 0.25

Variant | enrichment ratio
GSRW | ≤ 0.25
YGCG | ≤ 0.25
LDDT | ≤ 0.25
SHII | ≤ 0.25
AWAM | ≤ 0.25
YVQW | ≤ 0.25
TQKC | ≤ 0.25
DQAQ | ≤ 0.25
PPAI | ≤ 0.25
HNAI | 4.72
FERE | ≤ 0.25
WANP | ≤ 0.25
LMNF | ≤ 0.25
THLP | ≤ 0.25
RGNI | ≤ 0.25
KNRG | ≤ 0.25
YKAH | ≤ 0.25
YPME | ≤ 0.25
VIRL | ≤ 0.25
AWYK | ≤ 0.25
VFTY | ≤ 0.25
MHYM | ≤ 0.25
HWMQ | ≤ 0.25
GPKE | ≤ 0.25

Variant | enrichment ratio
FHKF | ≤ 0.25
DQKH | ≤ 0.25
NCMW | ≤ 0.25
DWVR | ≤ 0.25
YFNW | ≤ 0.25
YMIG | ≤ 0.25
AARN | ≤ 0.25
GFIS | ≤ 0.25
LSVS | ≤ 0.25
MLVK | ≤ 0.25
VIPP | ≤ 0.25
EATI | ≤ 0.25
DAAA | ≤ 0.25
YNSP | ≤ 0.25
SHDM | ≤ 0.25
TWRF | ≤ 0.25
SAIH | 2.91
QPES | ≤ 0.25
KCSS | ≤ 0.25
NYRE | ≤ 0.25
ETMA | ≤ 0.25
RGNG | ≤ 0.25
MSHY | 6.3
PIGA | ≤ 0.25

Variant | enrichment ratio
VFPR | ≤ 0.25
GTRP | ≤ 0.25
QDDI | ≤ 0.25
FYVH | ≤ 0.25
TECH | 27.7
NRHN | ≤ 0.25
GGIG | ≤ 0.25
VKAL | ≤ 0.25
GKGR | ≤ 0.25
NDPT | ≤ 0.25
KIMT | ≤ 0.25
NCRS | ≤ 0.25
PEYF | ≤ 0.25
LSFW | ≤ 0.25
EIQF | ≤ 0.25
DLPE | ≤ 0.25
CFLN | ≤ 0.25
QYIY | ≤ 0.25
RYTW | ≤ 0.25
GGMI | 12.3
DLEV | ≤ 0.25
LPIL | ≤ 0.25
ITSQ | ≤ 0.25
WPSI | ≤ 0.25

Variant | enrichment ratio
PGQA | ≤ 0.25
MIFR | ≤ 0.25
IISK | ≤ 0.25
ESIL | ≤ 0.25
DLGK | ≤ 0.25
QETR | ≤ 0.25
AQEN | ≤ 0.25
AAPD | ≤ 0.25
RFDN | ≤ 0.25
HFRV | ≤ 0.25
VNHK | ≤ 0.25
KGTS | ≤ 0.25
IFAT | ≤ 0.25
YTDE | ≤ 0.25
GYTD | ≤ 0.25
QKIR | ≤ 0.25
VWEL | ≤ 0.25
RTWV | ≤ 0.25
AMWL | ≤ 0.25
WPFT | ≤ 0.25
TCSR | 5.34
SPYP | ≤ 0.25
YVYC | ≤ 0.25
QSMS | ≤ 0.25

Variant | enrichment ratio
RCVE | ≤ 0.25
VGAQ | ≤ 0.25
MHMD | ≤ 0.25
TNET | 4.23
NRRR | ≤ 0.25
HRQS | ≤ 0.25
TMQK | ≤ 0.25
QMQL | ≤ 0.25
VRSE | ≤ 0.25
YHDS | ≤ 0.25
FETK | ≤ 0.25
ALYH | ≤ 0.25
DKHS | ≤ 0.25
LDFF | ≤ 0.25
PCDY | ≤ 0.25
PWTH | ≤ 0.25
YREW | ≤ 0.25
IILY | ≤ 0.25
DVMH | ≤ 0.25
ILLY | ≤ 0.25
IRVA | ≤ 0.25
MPES | ≤ 0.25
QLCH | ≤ 0.25
KTWN | ≤ 0.25

Variant | enrichment ratio
PAHF | ≤ 0.25
ENWH | ≤ 0.25
ETFH | ≤ 0.25
RAAK | ≤ 0.25
SIPM | 19.8
TEGS | 2.52
WSML | ≤ 0.25
AHVA | ≤ 0.25
GDQV | ≤ 0.25
VFFN | ≤ 0.25
SMQW | ≤ 0.25
KFIF | ≤ 0.25
SWQT | ≤ 0.25
AWER | ≤ 0.25
WKCL | ≤ 0.25
QWML | ≤ 0.25
AHRR | ≤ 0.25
DVFV | ≤ 0.25
